Measurements: PubChem BioAssay AID686978 (National Center for Advancing Translational Sciences (NCATS), 2013)
Out of some 420,000 compounds screened, about 64,000 (15%) were called active. The shares of active, inactive and inconclusive entries below differ from those in the screen. Calls come from the whole dose curve; as a rule, active = well fitted inhibition curve with a large enough effect; inconclusive = small, poorly fitted or top-dose-only effect; inactive = flat fitted curve, though single readings scatter. Potencies of inconclusive entries are left out as doubtful fits.

Assay: qHTS for Inhibitors of human tyrosyl-DNA phosphodiesterase 1 (TDP1): qHTS in cells in absence of CPT; note: nearly all actives have a fitted effect of over 55% in size
Details: DT40 Tdp1-/- hTDP1 cells, no CPT, ATP luminescence, 48 h; activity change, negative = growth inhibition: at 46.2 µM (top of the series) unless noted
Summary of the method: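 Chicken DT40 Tdp1-/- cells complemented with human TDP1, screened without camptothecin (DMSO vehicle only), 400 cells/well. Compounds pin-transferred, cells incubated at 37 °C for at least 48 hr. Growth read as ATP-dependent luminescence (CellTiter-Glo, 30 min at RT).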
% is set by controls: 0 for no effect and ±100 for the full control effect; potency is the fitted concentration of half-maximal effect; tags give direction and shape of the fitted curve.

Question: With `CCC(C)Sc1oc(-c2ccco2)nc1S(=O)(=O)c1ccc(Cl)cc1` (stereo not given) as the molecule, how does the Potency read?
Answer: inconclusive [inhibitor, single point]

Question: With `O=C(NCc1ccc(F)cc1)C(=O)NCC1CCCN1S(=O)(=O)c1ccccc1` (stereo not given) as the molecule, how does the Potency read?
Answer: inconclusive [inhibitor, single point]

Question: With `COc1cc(/C=C2/C(=O)NN(c3ccc(Cl)c(Cl)c3)C2=O)cc([N+](=O)[O-])c1O` as the molecule, how does the “activity change, negative = growth inhibition” value read?
Answer: inactive: 11%

Question: With `CC1=C(C(=O)N2CCOCC2)CC(CC(=O)NC2CCCC2)C(=O)N1Cc1ccc(C(C)(C)C)cc1` (stereo not given) as the molecule, how does the Potency read?
Answer: inconclusive [inhibitor, single point]

Question: For `COc1cc(OC)cc(C(=O)NC(=S)Nc2nnn(C)n2)c1`, which “activity change, negative = growth inhibition” value is on record?
Answer: inactive: -1.24%

Question: With `O=C(CCCn1nnc(-c2cccnc2)n1)c1ccc(F)cc1` as the molecule, how does the Potency read?
Answer: inconclusive [inhibitor, partial curve]

Question: With `CCC(C)NC(=O)CNC(=S)N(CCCN1CCOCC1)Cc1cccs1` (stereo not given) as the molecule, how does the Potency read?
Answer: inconclusive [inhibitor, single point]

Question: For `Cc1cccc(NC(=O)CN2CCN(C(=O)C3CCC3)CC2)c1C`, which “activity change, negative = growth inhibition” value is on record?
Answer: inactive: -0.558%

Question: For `COc1ccc(Nc2nnc(-c3ccc(C)c(S(=O)(=O)NCc4nc5ccccc5[nH]4)c3)c3ccccc23)cc1`, which Potency is on record?
Answer: active: 10.3 µM

Question: For `CCOC(=O)c1c(C)oc2ccc(OC(=O)COc3c(F)c(F)c(F)c(F)c3F)cc12`, which Potency is on record?
Answer: inconclusive [inhibitor, single point]

Question: Which Potency does the source give for `COc1cccc(N(C(=O)c2snc(C(N)=O)c2N)C(C(=O)NCC2CCCO2)c2ccc(F)cc2)c1` (stereo not given) here?
Answer: inconclusive [inhibitor, single point]

Question: Which Potency does the source give for `C/C(=N\NC(=O)c1cc(C(C)(C)C)[nH]n1)C12CC3CC(CC(C3)C1)C2` here?
Answer: inconclusive [inhibitor, single point]

Question: For `O=C(NCc1ccc(Cl)cc1)c1ccc2c(c1)NC(=O)C(CS(=O)(=O)Cc1ccc(F)cc1Cl)N2` (stereo not given), which Potency is on record?
Answer: inconclusive [inhibitor, single point]

Question: Which Potency does the source give for `N#Cc1c(N2CCOCC2)nc(-c2ccco2)c2c1CCCC2` here?
Answer: inconclusive [inhibitor, single point]

Question: With `Cc1ccc(NC(=S)C2=C(O)c3sccc3N(C)S2(=O)=O)cc1` as the molecule, how does the Potency read?
Answer: inconclusive [inhibitor, single point]

Question: Which “activity change, negative = growth inhibition” value does the source give for `CC(=O)NCCNC(=O)C1(C)Cc2c(-c3ccccc3)ccnc2O1` (stereo not given) here?
Answer: inactive: -12.7%

Question: With `COC(=O)C1=CO[C@@H](O[C@@H]2O[C@H](CO)[C@@H](O)[C@H](O)[C@H]2O)C2C1C=C[C@@]2(O)CO` (stereo not given in full) as the molecule, how does the Potency read?
Answer: inconclusive [inhibitor, single point]

Question: Which Potency does the source give for `Cc1cc2ccccc2n1CCNC(=O)C1CCCC1` here?
Answer: inconclusive [inhibitor, single point]

Question: Which Potency does the source give for `CC(C)CCNC(=O)c1onc(CSc2ccc(F)cc2)c1C(=O)NCCC(C)C` here?
Answer: inconclusive [inhibitor, single point]

Question: With `O=C(COCC(=O)Nc1cccc(C(F)(F)F)c1)Nc1cccc(C(F)(F)F)c1` as the molecule, how does the Potency read?
Answer: active: 25.9 µM

Question: Which Potency does the source give for `COc1ccc(-n2c(CCc3ccccc3)nnc2SCC(=O)c2ccccc2)cc1` here?
Answer: inconclusive [inhibitor, single point]

Question: For `FC(F)(F)c1cccc(NC(=S)Nc2cccc(Cl)c2)c1`, which Potency is on record?
Answer: inconclusive [inhibitor, single point]

Question: Which Potency does the source give for `CC(C)C12CN(C(=O)c3ccccc3[N+](=O)[O-])CC(C(C)C)(CN(C(=O)c3ccccc3[N+](=O)[O-])C1)C2=O` here?
Answer: inconclusive [inhibitor, single point]

Question: For `Cc1ccc(C(=O)CSc2ncnc3ccccc23)o1`, which Potency is on record?
Answer: inconclusive [inhibitor, single point]

Question: With `COc1ccccc1-n1cnnc1SCc1csc(-c2ccccc2)n1` as the molecule, how does the Potency read?
Answer: inconclusive [inhibitor, single point]

Question: With `O=C(CCN1CCN(CCO)CC1)Nc1ccc(Br)cc1` as the molecule, how does the Potency read?
Answer: inconclusive [inhibitor, single point]

Question: Which “activity change, negative = growth inhibition” value does the source give for `Cc1cccc(C)c1OCC(=O)NCC1CCCO1` (stereo not given) here?
Answer: inactive: 14.4%

Question: With `O=C(Nc1nc2c(F)cc(F)cc2s1)C1COc2ccccc2O1` (stereo not given) as the molecule, how does the “activity change, negative = growth inhibition” value read?
Answer: inactive: -25.4%

Question: Which Potency does the source give for `COc1ccc(C(=O)Nc2ccc3c4c(cccc24)CC3)cc1` here?
Answer: inconclusive [inhibitor, single point]

Question: Which “activity change, negative = growth inhibition” value does the source give for `CCC/C=C1/CCCOC(C(=O)NCCN2CCOCC2)(C(F)(F)F)C1` (stereo not given) here?
Answer: inactive: -2.03%

Question: For `Cc1c(NC(=O)C2CCCN2C(=O)c2cccs2)c(=O)n(-c2ccccc2)n1C` (stereo not given), which “activity change, negative = growth inhibition” value is on record?
Answer: inactive: -7.12%

Question: Which Potency does the source give for `CCOC(=O)N1CCC(N2Cc3cccc(C(=O)Nc4ccc(CC)cc4)c3C2=O)CC1` here?
Answer: inconclusive [inhibitor, single point]

Question: Which “activity change, negative = growth inhibition” value does the source give for `O=C(O)c1cccc(NS(=O)(=O)c2ccc(S(=O)(=O)N3CCOCC3)cc2)c1` here?
Answer: inactive: 3.24%

Question: With `O=C1CSC(c2nn(-c3ccccc3)cc2-c2cc3ccccc3oc2=O)N1Cc1ccco1` (stereo not given) as the molecule, how does the Potency read?
Answer: inconclusive [inhibitor, single point]

Question: Which “activity change, negative = growth inhibition” value does the source give for `O=C(NC1CCCCC1)C(CCc1ccccc1)n1c(=O)c(-c2ccccc2)nc2ccccc21` (stereo not given) here?
Answer: inactive: -28.6%

Question: For `CCNS(=O)(=O)c1ccc(CCC(=O)Nc2cc(Cl)ccc2Oc2ccccc2)cc1`, which Potency is on record?
Answer: inconclusive [inhibitor, single point]

Question: Which “activity change, negative = growth inhibition” value does the source give for `O=C(CCCCC(=O)Nc1ccc(F)cc1F)Nc1ccc(F)cc1F` here?
Answer: inactive: -5.65%

Question: Which “activity change, negative = growth inhibition” value does the source give for `CNc1c([N+](=O)[O-])ncn1C` here?
Answer: inactive: -1.56%

Question: Which “activity change, negative = growth inhibition” value does the source give for `Cc1cccc(/C=N/NC(=O)CN2CCCCCCC2)c1` here?
Answer: inactive: -13.8%

Question: With `O=C(Nc1ccc(C(F)(F)F)cc1-c1ccccc1)c1ccccc1` as the molecule, how does the Potency read?
Answer: inconclusive [inhibitor, partial curve]

Question: Which Potency does the source give for `Cc1cccc(CN2C(=O)c3ccccc3S(=O)(=O)c3ccc(C(=O)N(C)Cc4ccccc4)cc32)c1` here?
Answer: inconclusive [inhibitor, single point]

Question: With `CCOC(=O)c1c(C)[nH]c(C)c1C(=O)CSc1nc2ccccc2c(=O)n1-c1ccc(Cl)cc1` as the molecule, how does the Potency read?
Answer: active: 18.4 µM

Question: For `O=C(CC1C(=O)NCCN1Cc1ccc(F)cc1)NCCCn1cccn1` (stereo not given), which “activity change, negative = growth inhibition” value is on record?
Answer: inactive: 5.12%

Question: With `Cc1nc(Nc2ccccc2)sc1C(=O)c1ccc(F)cc1` as the molecule, how does the Potency read?
Answer: inconclusive [inhibitor, single point]

Question: With `O=C(N/N=C/c1cccnc1)C12CC3CC(CC(C3)C1)C2` as the molecule, how does the “activity change, negative = growth inhibition” value read?
Answer: inactive: -2.73%

Question: Which “activity change, negative = growth inhibition” value does the source give for `CSc1ccccc1OCc1cc(C(=O)N2CCN3CCCC3C2)no1` (stereo not given) here?
Answer: inactive: 0.931%

Question: With `Cc1cc2oc(=O)cc(CN(C)Cc3cccc(F)c3)c2cc1C` as the molecule, how does the “activity change, negative = growth inhibition” value read?
Answer: inactive: -6.66%

Question: With `COc1cccc(/C=N/NC(=O)c2csc(-n3nc(C)cc3C(F)(F)F)n2)c1` as the molecule, how does the activity change, negative = growth inhibition read?
Answer: inconclusive: -31.8% [inhibitor]

Question: With `Cc1nc(-c2cccc(NC(=O)C(C)Oc3ccccc3)c2)cs1` (stereo not given) as the molecule, how does the Potency read?
Answer: inconclusive [inhibitor, single point]

Question: With `COc1cccc2[nH]c3c(Cl)ncnc3c12` as the molecule, how does the Potency read?
Answer: inconclusive [inhibitor, single point]

Question: Which “activity change, negative = growth inhibition” value does the source give for `Cc1ccc(NC(=O)c2c(C)nc3sc(C(=O)Nc4ccc(F)cc4)c(N)c3c2-c2ccc(Cl)cc2)c(C)c1` here?
Answer: inactive: -12.3%

Question: With `COc1cccc(NC(=O)CCc2nnc3n(Cc4ccccc4Cl)c(=O)c4ccccc4n23)c1` as the molecule, how does the Potency read?
Answer: inconclusive [inhibitor, partial curve, poor fit]

Question: For `CCOC(=O)c1c(NC(=O)c2ccccc2C)sc2c1CC(C)(C)OC2`, which Potency is on record?
Answer: inconclusive [inhibitor, partial curve, poor fit]

Question: Which Potency does the source give for `CCCCN(C(=O)c1cc(-c2ccc(F)cc2)nc2ccccc12)c1c(N)n(CCCC)c(=O)[nH]c1=O` here?
Answer: inconclusive [inhibitor, single point]

Question: With `Cc1ccc(/C=N/N2CCCCC2)o1` as the molecule, how does the Potency read?
Answer: inconclusive [inhibitor, full curve, poor fit]

Question: For `CNC(=O)CN1C(=O)CSc2ncccc21`, which “activity change, negative = growth inhibition” value is on record?
Answer: inactive: -19.1%

Question: Which Potency does the source give for `COc1cc(SC)ccc1C(=O)OC(C)C(=O)NC1CCCC1` (stereo not given) here?
Answer: inconclusive [inhibitor, single point]

Question: With `Cc1ccc(Cl)cc1NC(=O)C1CC(=O)N(C(C)C)C1` (stereo not given) as the molecule, how does the “activity change, negative = growth inhibition” value read?
Answer: inactive: -5.59%

Question: Which Potency does the source give for `Cn1ncc(N2CCN(S(=O)(=O)c3ccc(Br)cc3)CC2)c(Cl)c1=O` here?
Answer: inconclusive [inhibitor, single point]

Question: For `COc1cc2c(cc1OC)-c1cc(Nc3ccc4c(c3)OCCO4)nc(=O)n1CC2`, which Potency is on record?
Answer: inconclusive [inhibitor, single point]

Question: Which Potency does the source give for `COc1ccc(-c2ccc(C#N)c(OC(=O)c3c(Cl)cccc3Cl)n2)cc1` here?
Answer: inconclusive [inhibitor, single point]

Question: Which Potency does the source give for `COc1ccc(-c2nc(N)ncc2-c2ccc(OC)c(OC)c2)c(O)c1` here?
Answer: inconclusive [inhibitor, single point]

Question: For `O=C(c1nc2ccc(Cl)cn2c1CN1CCC[C@H]1CO)N1CCCCCCC1`, which “activity change, negative = growth inhibition” value is on record?
Answer: inactive: 15%

Question: For `CCOc1ccccc1C(=O)Nc1ccc(-n2nncc2-c2ccccc2)cc1`, which Potency is on record?
Answer: active: 23.1 µM

Question: With `CCOC(=O)c1c(NC(=O)COc2ncnc3ccccc23)sc(C(C)=O)c1C` as the molecule, how does the Potency read?
Answer: active: 13 µM

Question: With `CCC1C(O)=C(c2ccccn2)C(=N)N1c1ccccc1` (stereo not given) as the molecule, how does the Potency read?
Answer: inconclusive [inhibitor, partial curve]

Question: Which Potency does the source give for `Cc1cc(NC(=O)c2ccco2)sc1C` here?
Answer: inconclusive [inhibitor, partial curve]

Question: With `NC(=O)c1nc[nH]c1C(=O)Nc1cccc(C(F)(F)F)c1` as the molecule, how does the Potency read?
Answer: inconclusive [inhibitor, partial curve]

Question: Which “activity change, negative = growth inhibition” value does the source give for `CCc1c(O)c(/C(C)=N\O)c(=O)n(-c2ccccc2)c1-c1ccccc1` here?
Answer: inactive: 2.52%

Question: Which Potency does the source give for `O=C1NC(=S)S/C1=C\c1ccc(SCc2ccco2)o1` here?
Answer: inconclusive [inhibitor, single point]
